Assay results as given in PubChem BioAssay AID652104 (National Center for Advancing Translational Sciences (NCATS), 2013).
Out of some 410,000 compounds screened, about 7,200 (1.8%) were called active. Inconclusive means that the source gave no clear call. Such entries were picked first, then a sample of the others. The call rests on the fitted dose curve; in most records, active means well fitted activation curve with a large enough effect; inconclusive means small, poorly fitted or top-dose-only effect, or another doubt; inactive means no such curve, though single readings can be large or run the other way. No potency is given beside an inconclusive call; the fits are too rough.

assay: qHTS of TDP-43 Inhibitors; conditions: TDP-43 expressing yeast growth rescue, BacTiter-Glo, 24 h; growth rescue (activation): at 46.1 µM (top of the series) unless noted; further: nearly all actives have a fitted effect of over 50% in size; on growth rescue (activation): % of control where 0% means no effect
In short: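 Luminescence from BacTiter-Glo reports growth of TDP-43-expressing yeast after 24 hr at 30 deg C with compound. Cells were raffinose-pregrown to mid-log, then seeded in galactose medium at OD600=0.02.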
Potency means the concentration at half of the fitted maximal effect; tags describe the fitted curve by direction and shape.

| Structure (SMILES) | Potency | growth rescue (activation) |
| --- | --- | --- |
| O=C(CNC(=O)c1ccccc1)OCc1ccc([N+](=O)[O-])cc1 | inconclusive [activator, single point] |  |
| CCCCN(CC)C(=O)CCCn1c(=O)c2cccn2c2ccccc21 | inconclusive [activator, partial curve] |  |
| Cc1ccc(OCc2nc(-c3ccccn3)n[nH]2)cc1 | active: 12.6 µM |  |
| CC(NC(=O)/C=C/c1ccco1)c1nc2ccccc2n1Cc1c(Cl)cccc1Cl (stereo not drawn) | inconclusive [activator, partial curve] |  |
| Clc1cccc(-n2cc(-c3ccccc3)c3c(NC4CCCC4)ncnc32)c1 | inactive |  |
| c1ccc(N2CCN(c3ncccn3)CC2)cc1 | inconclusive [activator, partial curve] |  |
| Cc1cccn2c(CN3CCCC(c4ccccc4)C3)c(C(=O)N3CCOCC3)nc12 (stereo not drawn) |  | inactive: -13.4% [at 0.397 µM] |
| Cc1nn(-c2ccccc2)c(Cl)c1C(=O)NCc1cccs1 | inconclusive [activator, partial curve] |  |
| O=C1c2ccccc2C(=O)N1C1C=CC=CC=C1 | active: 25.1 µM |  |
| COc1ccccc1CNC(=O)c1ccccc1SCC(=O)NCc1ccco1 | inconclusive [activator, partial curve] |  |
| Clc1cccc2c1CCN(Cc1nc(-c3cnccn3)no1)C2 | inconclusive [activator, partial curve] |  |
| COc1ccc2c(c1OC)C(=O)N1N=C(c3ccc(Br)cc3)CC21 (stereo not drawn) | active: 20 µM |  |
| Fc1ccc2c(c1)C1OCCCC1C(c1ccccc1)N2 (stereo not drawn) | inconclusive [activator, single point] |  |
| CN(C)c1ccc(NC(=S)NCC2CCCO2)cc1 (stereo not drawn) | inactive |  |
| COc1ccc(S(=O)(=O)NC2CCCCC2)cc1F | inconclusive [activator, single point] |  |
| O=C(CCc1ccccc1)NNC(=O)c1ccco1 | inconclusive [activator, single point] |  |
| COc1ccc(NC(=O)CCCC2CCCCC2)c(OC)c1 | inconclusive [activator, partial curve] |  |
| Cc1ccc(-c2ccc(/C=N/NC(N)=S)o2)cc1 | inconclusive [activator, single point] |  |
| NCCCC[C@H](N)c1nnc([C@H](CC(=O)O)NC(=O)C2CCNCC2)o1 | inactive |  |
| CCn1c2ccccc2c2nc3ccccc3nc21 | active: 10 µM |  |
| Cc1ccc(-c2cc(C(=O)OCC(=O)Nc3cc(C)on3)c3ccccc3n2)c(C)c1 | inactive |  |
| O=C(/C=C/c1cc(Br)ccc1O)c1ccco1 | inconclusive [activator, single point] |  |
| O=C(O)c1cccc(-n2cc(-c3cccc(C(F)(F)F)c3)cn2)c1 | inactive |  |
| CCNc1nc(N)nc(-c2cc(Cl)ccc2O)n1 | active: 3.16 µM |  |

| Structure (SMILES) | Potency | growth rescue (activation) |
| --- | --- | --- |
| CCOC(=O)c1c(-c2ccccc2)nnn1-c1nc(OCC)nc(N2CCCCC2)n1 | active: 22.4 µM |  |
| COc1ccc(N(C(=O)/C=C/C(=O)Nc2cc(C)on2)C(C(=O)NC2CCCC2)c2ccccc2C)cc1 (stereo not drawn) | inactive |  |
| Cc1c(Cl)cccc1NC(=O)N1CCCN(c2nc(-c3ccccc3)ns2)CC1 | inconclusive [activator, single point] |  |
| CCCSc1cc(N2CCOCC2)nc(-c2ccccc2Cl)n1 | inconclusive [activator, single point] |  |
| O=C(CSc1ccc(-c2cccs2)nn1)N1CCCCCC1 | active: 17.8 µM |  |
| COc1ccc(NC(=O)CN(C)C(=O)c2cn(-c3ccccc3)nc2-c2ccc(F)cc2)cc1 | active: 25.1 µM |  |
| O=C(Cn1ccsc1=NC(=O)c1ccco1)c1ccccc1 | inconclusive [activator, single point] |  |
| CCC1CCCCN1C(=S)NC(=O)c1cc(Br)ccc1Cl (stereo not drawn) | active: 28.2 µM |  |
| Cc1ccc(-c2nnc(-c3ccccc3Br)o2)cc1 | inconclusive [activator, single point] |  |
| O=S(=O)(NC1CCCCC1)c1ccc(Br)cc1 | inconclusive [activator, single point] |  |
| S=c1[nH]c(-c2ccccc2)cn1/N=C/c1ccccc1Br | inconclusive [activator, single point] |  |
| S=C1NCN(C2CCCCC2)CN1CCc1ccccc1 | inconclusive [activator, single point] |  |
| Cc1cc(C)cc(-n2c(SCC(=O)NC3CCCCC3)nc3c([nH]c4ccccc43)c2=O)c1 | inconclusive [activator, partial curve] |  |
| CC12CCC(C(=O)Nc3cccc(Cl)c3)(C(Br)C1=O)C2(C)C (stereo not drawn) | active: 20 µM |  |
| O=C(O)c1cc2ccccc2c2c1C(=O)c1ccccc1-2 | inactive |  |
| COC(=O)c1ccccc1NC(=O)CCS(=O)(=O)c1nc(-c2ccc3c(c2)OCO3)cc(C(F)(F)F)n1 | inactive |  |
| Cc1cc(C)n2c(NC3CCCCC3)c(-c3ccc(F)cc3)nc2n1 | inconclusive [activator, full curve, poor fit] |  |
| CN(C)c1oc(-c2ccccc2Cl)nc1P(=O)(c1ccccc1)c1ccccc1 | inconclusive [activator, full curve, poor fit] |  |
| COc1ccccc1CNc1ncnc2c1nnn2C | inconclusive [activator, partial curve] |  |
| CCCCC(=O)NNC(=S)NC(=O)c1ccc(C)cc1 | inactive |  |
| CCc1nn(CC(=O)NC(C)CC)c(=O)c2cc3occc3n12 (stereo not drawn) | inactive |  |
| CCOC(=O)N1CCN(C(=O)c2ccc3c(c2)N(Cc2ccc(C)cc2)CCS3)CC1 | inconclusive [activator, partial curve, poor fit] |  |
| Cc1cccc(C)c1NC(=O)CCCSc1nnc(-c2ccco2)o1 | inconclusive [activator, single point] |  |
| COc1ccc(C2CC(c3ccccc3)=NN2c2ccc(C(N)=O)cc2)cc1 (stereo not drawn) | inconclusive [activator, single point] |  |
